Laboratory results published in the supplement of paper PMC11876631.
± gives the standard deviation of the averaged measurements. Laboratory Escherichia coli strains with one amino-acid change in an essential protein, pooled on minimal glucose agar with carbenicillin or gentamicin at twice the control MIC (plus kanamycin and chloramphenicol for the plasmids), 48 h. Fold change of barcode share against drug-free plates; higher = less susceptible. Active = above 20 in both replicates (the paper's putatively resistant). '<' = one read or none on drug, '>' = one read or none on a drug-free plate. Shares are relative, so most strains fall below 1 when a few take over. Listed are strains with at least 15 reads on both drug-free plates, and hits; most hits rest on fewer reference reads. Replicate rank correlation about 0.5. Edits are read from barcodes.

B1: mukB V760Q (protein)
chain: MIERGKFRSLTLINWNGFFARTFDLDELVTTLSGGNGAGKSTTMAAFVTALIPDLTLLHFRNTTEAGATSGSRDKGLHGKLKAGVCYSMLDTINSRHQRVVVGVRLQQVAGRDRKVDIKPFAIQGLPMSVQPTQLVTETLNERQARVLPLNELKDKLEAMEGVQFKQFNSITDYHSLMFDLGIIARRLRSASDRSKFYRLIEASLYGGISSAITRSLRDYLLPENSGVRKAFQDMEAALRENRMTLEAIRVTQSDRDLFKHLISEATNYVAADYMRHANERRVHLDKALEFRRELHTSRQQLAAEQYKHVDMARELAEHNGAEGDLEADYQAASDHLNLVQTALRQQEKIERYEADLDELQIRLEEQNEVVAEAIERQQENEARAEAAELEVDELKSQLADYQQALDVQQTRAIQYNQAIAALNRAKELCHLPDLTADCAAEWLETFQAKELEATEKMLSLEQKMSMAQTAHSQFEQAYQLVVAINGPLARNEAWDVARELLREGVDQRHLAEQVQPLRMRLSELEQRLREQQEAERLLADFCKRQGKNFDIDELEALHQELEARIASLSDSVSNAREERMALRQEQEQLQSRIQSLMQRAPVWLAAQNSLNQLSEQCGEEFTSSQDVTEYLQQLLEREREAIVERDEVGARKNAVDEEIERLSQPGGSEDQRLNALAERFGGVLLSEIYDDVSLEDAPYFSALYGPSRHAIVVPDLSQVTEHLEGLTDCPEDLYLIEGDPQSFDDSVFSVDELEKAVVQKIADRQWRYSRFPEVPLFGRAARESRIESLHAEREVLSERFATLSFDVQKTQRLHQAFSRFIGSHLAVAFESDPEAEIRQLNSRRVELERALSNHENDNQQQRIQFEQAKEGVTALNRILPRLNLLADDSLADRVDEIRERLDEAQEAARFVQQFGNQLAKLEPIVSVLQSDPEQFEQLKEDYAYSQQMQRDARQQAFALTEVVQRRAHFSYSDSAEMLSGNSDLNEKLRERLEQAEAERTRAREALRGHAAQLSQYNQVLASLKSSYDTKKELLNDLQRELQDIGVRADSGAEERARIRRDELHAQLSNNRSRRNQLEKALTFCEAEMDNLTRKLRKLERDYFEMREQVVTAKAGWCAVMRMVKDNGVERRLHRRELAYLSADDLRSMSDKALGALRLAVADNEHLRDVLRMSEDPKRPERKIQFFVAVYQHLRERIRQDIIRTDDPVEAIEQMEIELSRLTEELTSREQKLAISSRSVANIIRKTIQREQNRIRMLNQGLQNVSFGQVNSVRLNVNVRETHAMLLDVLSEQHEQHQDLFNSNRLTFSEALAKLYQRLNPQIDMGQRTPQTIGEELLDYRNYLEMEVEVNRGSDGWLRAESGALSTGEAIGTGMSILVMVVQSWEDESRRLRGKDISPCRLLFLDEAARLDARSIATLFELCERLQMQLIIAAPENISPEKGTTYKLVRKVFQNTEHVHVVGLRGFAPQLPETLPGTDEAPSQAS
B2: mukB V760D (protein)
chain: MIERGKFRSLTLINWNGFFARTFDLDELVTTLSGGNGAGKSTTMAAFVTALIPDLTLLHFRNTTEAGATSGSRDKGLHGKLKAGVCYSMLDTINSRHQRVVVGVRLQQVAGRDRKVDIKPFAIQGLPMSVQPTQLVTETLNERQARVLPLNELKDKLEAMEGVQFKQFNSITDYHSLMFDLGIIARRLRSASDRSKFYRLIEASLYGGISSAITRSLRDYLLPENSGVRKAFQDMEAALRENRMTLEAIRVTQSDRDLFKHLISEATNYVAADYMRHANERRVHLDKALEFRRELHTSRQQLAAEQYKHVDMARELAEHNGAEGDLEADYQAASDHLNLVQTALRQQEKIERYEADLDELQIRLEEQNEVVAEAIERQQENEARAEAAELEVDELKSQLADYQQALDVQQTRAIQYNQAIAALNRAKELCHLPDLTADCAAEWLETFQAKELEATEKMLSLEQKMSMAQTAHSQFEQAYQLVVAINGPLARNEAWDVARELLREGVDQRHLAEQVQPLRMRLSELEQRLREQQEAERLLADFCKRQGKNFDIDELEALHQELEARIASLSDSVSNAREERMALRQEQEQLQSRIQSLMQRAPVWLAAQNSLNQLSEQCGEEFTSSQDVTEYLQQLLEREREAIVERDEVGARKNAVDEEIERLSQPGGSEDQRLNALAERFGGVLLSEIYDDVSLEDAPYFSALYGPSRHAIVVPDLSQVTEHLEGLTDCPEDLYLIEGDPQSFDDSVFSVDELEKAVVDKIADRQWRYSRFPEVPLFGRAARESRIESLHAEREVLSERFATLSFDVQKTQRLHQAFSRFIGSHLAVAFESDPEAEIRQLNSRRVELERALSNHENDNQQQRIQFEQAKEGVTALNRILPRLNLLADDSLADRVDEIRERLDEAQEAARFVQQFGNQLAKLEPIVSVLQSDPEQFEQLKEDYAYSQQMQRDARQQAFALTEVVQRRAHFSYSDSAEMLSGNSDLNEKLRERLEQAEAERTRAREALRGHAAQLSQYNQVLASLKSSYDTKKELLNDLQRELQDIGVRADSGAEERARIRRDELHAQLSNNRSRRNQLEKALTFCEAEMDNLTRKLRKLERDYFEMREQVVTAKAGWCAVMRMVKDNGVERRLHRRELAYLSADDLRSMSDKALGALRLAVADNEHLRDVLRMSEDPKRPERKIQFFVAVYQHLRERIRQDIIRTDDPVEAIEQMEIELSRLTEELTSREQKLAISSRSVANIIRKTIQREQNRIRMLNQGLQNVSFGQVNSVRLNVNVRETHAMLLDVLSEQHEQHQDLFNSNRLTFSEALAKLYQRLNPQIDMGQRTPQTIGEELLDYRNYLEMEVEVNRGSDGWLRAESGALSTGEAIGTGMSILVMVVQSWEDESRRLRGKDISPCRLLFLDEAARLDARSIATLFELCERLQMQLIIAAPENISPEKGTTYKLVRKVFQNTEHVHVVGLRGFAPQLPETLPGTDEAPSQAS
B3: mukE L54A (protein)
chain: MSSTNIEQVMPVKLAQALANPLFPALDSALRSGRHIGLDELDNHAFLMDFQEYAEEFYARYNVELIRAPEGFFYLRPRSTTLIPRSVLSELDMMVGKILCYLYLSPERLANEGIFTQQELYDELLTLADEAKLLKLVNNRSTGSDVDRQKLQEKVRSSLNRLRRLGMVWFMGHDSSKFRITESVFRFGADVRAGDDPREAQRRLIRDGEAMPIENHLQLNDETEENQPDSGEEE
B4: mukE L99A (protein)
chain: MSSTNIEQVMPVKLAQALANPLFPALDSALRSGRHIGLDELDNHAFLMDFQEYLEEFYARYNVELIRAPEGFFYLRPRSTTLIPRSVLSELDMMVGKIACYLYLSPERLANEGIFTQQELYDELLTLADEAKLLKLVNNRSTGSDVDRQKLQEKVRSSLNRLRRLGMVWFMGHDSSKFRITESVFRFGADVRAGDDPREAQRRLIRDGEAMPIENHLQLNDETEENQPDSGEEE
B5: mukE L99Q (protein)
chain: MSSTNIEQVMPVKLAQALANPLFPALDSALRSGRHIGLDELDNHAFLMDFQEYLEEFYARYNVELIRAPEGFFYLRPRSTTLIPRSVLSELDMMVGKIQCYLYLSPERLANEGIFTQQELYDELLTLADEAKLLKLVNNRSTGSDVDRQKLQEKVRSSLNRLRRLGMVWFMGHDSSKFRITESVFRFGADVRAGDDPREAQRRLIRDGEAMPIENHLQLNDETEENQPDSGEEE
B6: mukE L102A (protein)
chain: MSSTNIEQVMPVKLAQALANPLFPALDSALRSGRHIGLDELDNHAFLMDFQEYLEEFYARYNVELIRAPEGFFYLRPRSTTLIPRSVLSELDMMVGKILCYAYLSPERLANEGIFTQQELYDELLTLADEAKLLKLVNNRSTGSDVDRQKLQEKVRSSLNRLRRLGMVWFMGHDSSKFRITESVFRFGADVRAGDDPREAQRRLIRDGEAMPIENHLQLNDETEENQPDSGEEE
B7: asd L175W (protein)
chain: MKNVGFIGWRGMVGSVLMQRMVEERDFDAIRPVFFSTSQLGQAAPSFGGTTGTLQDAFDLEALKALDIIVTCQGGDYTNEIYPKLRESGWQGYWIDAASSLRMKDDAIIILDPVNQDVITDGLNNGIRTFVGGNCTVSLMLMSLGGLFANDLVDWVSVATYQAASGGGARHMREWLTQMGHLYGHVADELATPSSAILDIERKVTTLTRSGELPVDNFGVPLAGSLIPWIDKQLDNGQSREEWKGQAETNKILNTSSVIPVDGLCVRVGALRCHSQAFTIKLKKDVSIPTVEELLAAHNPWAKVVPNDREITMRELTPAAVTGTLTTPVGRLRKLNMGPEFLSAFTVGDQLLWGAAEPLRRMLRQLA
B8: mukE L102Q (protein)
chain: MSSTNIEQVMPVKLAQALANPLFPALDSALRSGRHIGLDELDNHAFLMDFQEYLEEFYARYNVELIRAPEGFFYLRPRSTTLIPRSVLSELDMMVGKILCYQYLSPERLANEGIFTQQELYDELLTLADEAKLLKLVNNRSTGSDVDRQKLQEKVRSSLNRLRRLGMVWFMGHDSSKFRITESVFRFGADVRAGDDPREAQRRLIRDGEAMPIENHLQLNDETEENQPDSGEEE
B9: mukE L102D (protein)
chain: MSSTNIEQVMPVKLAQALANPLFPALDSALRSGRHIGLDELDNHAFLMDFQEYLEEFYARYNVELIRAPEGFFYLRPRSTTLIPRSVLSELDMMVGKILCYDYLSPERLANEGIFTQQELYDELLTLADEAKLLKLVNNRSTGSDVDRQKLQEKVRSSLNRLRRLGMVWFMGHDSSKFRITESVFRFGADVRAGDDPREAQRRLIRDGEAMPIENHLQLNDETEENQPDSGEEE
B10: mukE I98A (protein)
chain: MSSTNIEQVMPVKLAQALANPLFPALDSALRSGRHIGLDELDNHAFLMDFQEYLEEFYARYNVELIRAPEGFFYLRPRSTTLIPRSVLSELDMMVGKALCYLYLSPERLANEGIFTQQELYDELLTLADEAKLLKLVNNRSTGSDVDRQKLQEKVRSSLNRLRRLGMVWFMGHDSSKFRITESVFRFGADVRAGDDPREAQRRLIRDGEAMPIENHLQLNDETEENQPDSGEEE

Target: Escherichia coli (laboratory strain)
Experiment: barcode share on antibiotic plates over drug-free plates; higher = less susceptible
Experimental: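 A pool of E. coli strains, each edited to carry one amino-acid change in an essential protein, was grown for 48 h on minimal glucose agar with or without antibiotic; strain barcodes were sequenced; mean of two replicates.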

[1] = antibiotic: carbenicillin, 2× MIC (3.1 µg/mL)
[2] = antibiotic: gentamicin, 2× MIC (MIC 0.45 µg/mL)

Protein | fold change of barcode share [1] | fold change of barcode share [2]
B1 | 0.121 ± 0.046 | < 0.0171
B2 | 0.282 ± 0.019 | < 0.0105
B3 | 0.311 ± 0.035 | < 0.0057
B4 | 0.489 ± 0.44 | < 0.0136
B5 | 0.295 ± 0.11 | < 0.0169
B6 | 0.954 ± 1.1 | < 0.00949
B7 | 1.69 ± 1.4 | 0.00393 ± 0.0018
B8 | 0.348 ± 0.091 | < 0.0114
B9 | 0.344 ± 0.11 | –
B10 | 0.219 ± 0.028 | < 0.0109
